Source: PMC6956818, “Activation of JNK and p38 MAPK Mediated by ZDHHC17 Drives Glioblastoma Multiforme Development and Malignant Progression” (Theranostics, 2020)
These are yes or no findings as the source states them, for the method shown. Binding seen in cells or lysates may run through a third protein. Some binding calls cover weakened binding; strength is not graded here. For part of these data: Tags and fused reporters may be left off the sequences shown.

Protein sequences, listed by entry. Tags and fused reporters are not part of them. Lines headed by an entry give the natural chain unless they say otherwise; changes in a name come on top. Chains listed by the source or under a name are the forms on record and can include a tag or linker.
UniProt O14733: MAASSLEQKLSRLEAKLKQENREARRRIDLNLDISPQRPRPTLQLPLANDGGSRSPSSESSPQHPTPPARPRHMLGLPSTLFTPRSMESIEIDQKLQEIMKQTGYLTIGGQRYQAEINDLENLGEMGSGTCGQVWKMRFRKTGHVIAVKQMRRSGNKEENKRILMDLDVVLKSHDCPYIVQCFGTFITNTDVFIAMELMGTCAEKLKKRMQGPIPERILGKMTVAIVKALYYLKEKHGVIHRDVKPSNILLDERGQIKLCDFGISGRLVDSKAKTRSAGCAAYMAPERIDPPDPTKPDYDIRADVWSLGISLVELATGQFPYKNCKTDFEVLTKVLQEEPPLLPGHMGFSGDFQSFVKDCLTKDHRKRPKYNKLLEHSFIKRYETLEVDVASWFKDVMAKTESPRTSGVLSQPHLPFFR
UniProt P45985: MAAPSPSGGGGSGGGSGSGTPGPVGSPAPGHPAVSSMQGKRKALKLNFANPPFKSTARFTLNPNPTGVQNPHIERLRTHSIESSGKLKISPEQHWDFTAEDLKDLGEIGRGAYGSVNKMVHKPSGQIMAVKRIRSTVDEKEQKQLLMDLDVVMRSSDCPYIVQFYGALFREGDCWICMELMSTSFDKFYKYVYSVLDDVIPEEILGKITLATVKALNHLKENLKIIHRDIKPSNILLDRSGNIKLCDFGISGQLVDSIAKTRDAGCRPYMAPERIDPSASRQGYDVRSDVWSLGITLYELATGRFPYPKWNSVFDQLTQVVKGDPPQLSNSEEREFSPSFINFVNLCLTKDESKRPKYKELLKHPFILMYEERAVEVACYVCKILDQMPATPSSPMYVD
UniProt Q8IUH5: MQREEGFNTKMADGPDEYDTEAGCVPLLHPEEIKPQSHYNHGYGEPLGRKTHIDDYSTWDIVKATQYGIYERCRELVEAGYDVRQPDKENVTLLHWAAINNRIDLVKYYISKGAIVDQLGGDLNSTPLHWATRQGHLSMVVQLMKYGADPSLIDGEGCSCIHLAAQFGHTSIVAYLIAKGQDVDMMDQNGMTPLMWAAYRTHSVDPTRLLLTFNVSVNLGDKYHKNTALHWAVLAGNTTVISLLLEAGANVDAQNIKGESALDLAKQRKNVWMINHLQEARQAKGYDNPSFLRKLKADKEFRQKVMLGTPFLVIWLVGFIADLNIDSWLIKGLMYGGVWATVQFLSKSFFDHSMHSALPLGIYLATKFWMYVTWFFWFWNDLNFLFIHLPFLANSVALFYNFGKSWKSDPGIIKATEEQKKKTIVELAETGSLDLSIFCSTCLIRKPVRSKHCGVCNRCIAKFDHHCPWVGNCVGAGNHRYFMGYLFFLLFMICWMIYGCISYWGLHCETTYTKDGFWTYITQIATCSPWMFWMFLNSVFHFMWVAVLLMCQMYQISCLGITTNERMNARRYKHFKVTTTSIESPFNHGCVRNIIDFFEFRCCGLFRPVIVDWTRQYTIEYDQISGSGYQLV
Myc-ZDHHC17 ΔANK (Q8IUH5, form named): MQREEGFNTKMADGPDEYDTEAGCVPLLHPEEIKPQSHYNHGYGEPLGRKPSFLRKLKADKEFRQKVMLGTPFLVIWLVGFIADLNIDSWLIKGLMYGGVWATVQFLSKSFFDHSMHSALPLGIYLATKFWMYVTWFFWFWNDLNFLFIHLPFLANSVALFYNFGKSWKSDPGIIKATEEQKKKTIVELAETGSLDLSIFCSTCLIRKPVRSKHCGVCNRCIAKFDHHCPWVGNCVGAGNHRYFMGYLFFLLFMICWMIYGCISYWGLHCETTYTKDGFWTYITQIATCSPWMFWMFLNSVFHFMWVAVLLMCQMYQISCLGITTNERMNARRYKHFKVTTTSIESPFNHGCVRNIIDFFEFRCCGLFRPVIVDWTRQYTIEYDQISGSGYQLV
Myc-ZDHHC17 ΔDHHC (Q8IUH5, form named): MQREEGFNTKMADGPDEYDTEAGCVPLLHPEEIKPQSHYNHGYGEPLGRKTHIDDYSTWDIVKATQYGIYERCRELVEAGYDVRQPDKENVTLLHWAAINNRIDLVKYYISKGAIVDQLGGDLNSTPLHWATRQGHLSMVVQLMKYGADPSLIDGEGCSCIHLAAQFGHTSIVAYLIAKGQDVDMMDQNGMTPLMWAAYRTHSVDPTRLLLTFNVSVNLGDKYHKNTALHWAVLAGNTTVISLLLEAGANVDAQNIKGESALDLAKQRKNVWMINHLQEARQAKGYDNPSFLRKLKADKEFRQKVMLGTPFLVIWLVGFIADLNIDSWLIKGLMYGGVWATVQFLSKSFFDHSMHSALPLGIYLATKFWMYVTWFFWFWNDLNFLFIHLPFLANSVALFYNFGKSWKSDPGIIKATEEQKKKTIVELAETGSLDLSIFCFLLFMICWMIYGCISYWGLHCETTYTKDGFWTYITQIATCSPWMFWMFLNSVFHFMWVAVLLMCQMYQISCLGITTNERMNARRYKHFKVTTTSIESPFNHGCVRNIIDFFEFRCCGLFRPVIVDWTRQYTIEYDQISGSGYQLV

Experiments:
Assay in all cases: co-IP; lysates (RIPA buffer) of HEK293 cells co-expressing Myc-ZDHHC17 (or its mutants) and Flag-MAPKKs (or MAP2K4 mutants); IP with agarose-immobilized antibody at 4 °C overnight, IB with anti-FLAG and anti-Myc
Flag-MAP2K6 = biological target: T1, Flag-MAP2K6 (UniProt P52564)
T1 sequence: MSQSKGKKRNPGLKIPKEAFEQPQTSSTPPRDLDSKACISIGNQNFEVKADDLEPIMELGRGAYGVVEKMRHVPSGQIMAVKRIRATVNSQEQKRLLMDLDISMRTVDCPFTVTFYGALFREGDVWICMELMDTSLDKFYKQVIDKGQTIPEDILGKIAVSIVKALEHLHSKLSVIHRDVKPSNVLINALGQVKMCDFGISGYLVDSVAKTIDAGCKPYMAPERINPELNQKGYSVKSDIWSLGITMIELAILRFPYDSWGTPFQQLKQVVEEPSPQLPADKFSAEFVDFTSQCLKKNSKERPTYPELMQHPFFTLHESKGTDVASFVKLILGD

Flag-MAP2K7 = Flag-MAP2K7 (UniProt O14733)
Flag-MAP2K2 = Flag-MAP2K2 (UniProt P36507)
Flag-MAP2K3 = biological target: T2, Flag-MAP2K3 (UniProt P46734)
T2 sequence: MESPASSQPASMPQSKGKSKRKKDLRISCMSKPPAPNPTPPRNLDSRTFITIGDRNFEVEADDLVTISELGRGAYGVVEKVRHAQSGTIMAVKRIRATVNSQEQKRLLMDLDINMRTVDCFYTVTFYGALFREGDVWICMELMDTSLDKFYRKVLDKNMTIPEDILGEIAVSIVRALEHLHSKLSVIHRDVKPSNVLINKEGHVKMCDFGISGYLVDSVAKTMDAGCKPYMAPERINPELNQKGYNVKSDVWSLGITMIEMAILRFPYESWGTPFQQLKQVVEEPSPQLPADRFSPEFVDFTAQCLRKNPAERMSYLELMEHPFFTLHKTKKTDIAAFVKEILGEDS

Flag-MAP2K4 (human) = Flag-MAP2K4 (human) (UniProt P45985)

Substance | binding (Flag-MAP2K6) | binding (Flag-MAP2K7) | binding (Flag-MAP2K2) | binding (Flag-MAP2K3) | binding (Flag-MAP2K4 (human))
Myc-ZDHHC17 (from UniProt Q8IUH5 1-632) | no binding | binds | no binding | no binding | 
Myc-ZDHHC17 ΔANK (from UniProt Q8IUH5 1-632) |  |  |  |  | no binding
Myc-ZDHHC17 ΔDHHC (from UniProt Q8IUH5 1-632) |  |  |  |  | binds
